Data reported in PubChem BioAssay AID686978 (National Center for Advancing Translational Sciences (NCATS), 2013).
Screen size: about 420,000 compounds; about 64,000 (15%) were called active. Inconclusive means that the source gave no clear call. Such entries were picked first, then a sample of the others. The call rests on the fitted dose curve; in most records, active means well fitted inhibition curve with a large enough effect; inconclusive means small, poorly fitted or top-dose-only effect; inactive means flat fitted curve, though single readings scatter. Potencies of inconclusive entries are left out as doubtful fits.

Assay: qHTS for Inhibitors of human tyrosyl-DNA phosphodiesterase 1 (TDP1): qHTS in cells in absence of CPT; further: nearly all actives have a fitted effect of over 55% in size
Settings: DT40 Tdp1-/- hTDP1 cells, no CPT, ATP luminescence, 48 h; activity change, negative = growth inhibition: at 46.2 µM (top of the series) unless noted
In short: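 DT40 Tdp1-/-;hTDP1 cells, no CPT (DMSO vehicle only), 400 cells/well; compounds pin-transferred; ≥48 hr, 37 °C; CellTiter-Glo 30 min RT dark, luminescence read.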
On the % scale 0 is the no-effect control and ±100 the full control effect; potency means the concentration at half of the fitted maximal effect; tags describe the fitted curve by direction and shape.

Row | Structure (SMILES) | Potency | activity change, negative = growth inhibition
1 | COCCCNC(NC(=O)c1ccc(C)cc1)C(Cl)(Cl)Cl (stereo not given) | active: 14.6 µM | –
2 | CCOc1ccccc1NC(=O)C1CCCN(S(=O)(=O)c2cccc3nsnc23)C1 (stereo not given) | inconclusive [inhibitor, single point] | –
3 | CCN(CC(=O)Nc1c(F)cccc1F)C(=O)c1ccc2c(c1)OCO2 | – | inactive: -6.21%
4 | Cc1ccccc1Nc1nn2c(=O)c3ccc(C(=O)N4CCCC(C)C4)cc3nc2s1 (stereo not given) | active: 16.4 µM | –
5 | COc1cc2ccccc2cc1C(=O)Nc1ccccc1N1CCN(S(C)(=O)=O)CC1 | active: 20.6 µM | –
6 | CSc1nnc(C(C)(C)C)c(=O)n1/N=C/c1ccc(Cl)cc1 | inconclusive [inhibitor, partial curve] | –
7 | CC(C)N1CCc2c(sc(NC(=O)CCc3ccccc3)c2C(N)=O)C1 | – | inactive: -6.85%
8 | O=C(/C=C/c1ccc2c(c1)OCO2)N1CCN(c2ccc(Cl)cc2)CC1 | inconclusive [inhibitor, partial curve, poor fit] | –
9 | COc1cccc(OC)c1C(=O)Nc1ccc2c(c1)N(C(C)=O)CCC2 | – | inactive: -4.03%
10 | CC(C)N(C(=O)COC(=O)c1ccccc1C(=O)c1ccc(Cl)c([N+](=O)[O-])c1)C(C)C | inconclusive [inhibitor, single point] | –
11 | COc1ccc(NC(=O)Cn2c(SCc3ccc(C)cc3)nc3cccnc32)c(OC)c1 | inconclusive [inhibitor, single point] | –
12 | CSc1ccc(S(=O)(=O)NCc2ccccc2Cl)cc1 | inconclusive [inhibitor, single point] | –
13 | CN(Cc1ccno1)Cc1cn(C)nc1-c1ccc(Oc2ccccc2)cc1 | inconclusive [inhibitor, single point] | –
14 | CSc1nccc(Oc2cccc(C#N)c2)n1 | – | inconclusive: -33.8% [inhibitor]
15 | C[C@@]12CC(=O)NC1N(C(=O)c1cccc(C(F)(F)F)c1)C(c1ccccc1OC(=O)c1cccc(C(F)(F)F)c1)C2 (stereo not given in full) | inconclusive [inhibitor, single point] | –
16 | O=C(CCN1C(=O)[C@@H]2Cc3ccccc3CN2C1=O)NCc1ccc(Cl)cc1 | inconclusive [inhibitor, single point] | –
17 | O=C(Oc1ccc(Cl)c2cccnc12)N1CCCCCC1 | – | inactive: -16.8%
18 | CC(C)(C)c1ccc(C(=O)CCCN2CCC(OC(c3ccccc3)c3ccccc3)CC2)cc1 | active: 5.96 µM | –
19 | Cn1c(N2CCN(C(c3ccccc3)c3ccccc3)CC2)nc2ccccc21 | active: 18.4 µM | –
20 | CCN(CC)c1ccc(C(=O)OCC(=O)Nc2cccc(S(=O)(=O)NC3=NCCCCC3)c2)cc1 | active: 18.4 µM | –
21 | CCOc1ccc(CNS(=O)(=O)c2cc(-c3cc(C)no3)ccc2C)cc1OC | inconclusive [inhibitor, single point] | –
22 | O=Cc1c(N2CCN(CCO)CC2)nc2ccccn2c1=O | – | inactive: 2.26%
23 | COc1ccc([C@H]2C[C@H](n3cc(COC(=O)c4ccccc4)nn3)[C@@H](O)CN2C(=O)c2cccs2)cc1 | – | inactive: 3.09%
24 | CCCCCCN1C(=O)CC(NC(=O)OCC2c3ccccc3-c3ccccc32)C/C=C\C1C(C)C (stereo not given) | active: 14.6 µM | –
25 | COCC(=O)N1CCC2(CCCN(C(=O)Nc3cccc(F)c3)C2)CC1 | – | inactive: 1.8%

Row | Structure (SMILES) | Potency | activity change, negative = growth inhibition
26 | Nc1nnc(SCC(=O)NC2CCCCCCC2)s1 | – | inconclusive: -34.6% [inhibitor]
27 | CCN(c1ccccc1C)S(=O)(=O)c1cc2c3c(c1)CCN3C(=O)CC2 | inconclusive [inhibitor, single point] | –
28 | CCCCNC(=O)c1nc(C2CCN(S(=O)(=O)c3ccc(OC(F)(F)F)cc3)CC2)oc1-c1ccccc1 | active: 6.51 µM | –
29 | Cc1cccc(N2CC(=O)N(c3cccc(C)c3)CC2=O)c1 | – | inactive: -15.4%
30 | CCN(Cc1ccccc1)C(=O)COC(=O)[C@@H]1CCCN1C(=O)c1cccs1 | – | inactive: -21.3%
31 | CCc1ccc(-n2c(=O)c3c4c(sc3n(CC(=O)NC(C)CC)c2=O)CCCC4)cc1 (stereo not given) | – | inactive: -18%
32 | CCN(CC)S(=O)(=O)c1ccc(C(=O)NCCc2cc3c(OC)ccc(OC)c3[nH]c2=O)cc1 | active: 16.4 µM | –
33 | COCCCNC(=O)CSc1nc(-c2ccccc2)[nH]c1-c1ccc(C)cc1 | inconclusive [inhibitor, single point] | –
34 | Cc1cc(-c2ccnc(-n3ncc(C(=O)N(C)Cc4nccs4)c3C)n2)c(C)s1 | inconclusive [inhibitor, single point] | –
35 | Cc1cccc(C)c1NC(=O)CN(C)CC(=O)N(C)CC(=O)Nc1ccccc1Br | inconclusive [inhibitor, partial curve, poor fit] | –
36 | CC(C)NC(=O)N(C)C[C@H]1Oc2c(NC(=O)Nc3ccc(C(F)(F)F)cc3)cccc2C(=O)N([C@H](C)CO)C[C@@H]1C | active: 18.4 µM | –
37 | C=CC[N+]1(CC#CCOC(c2ccccc2)c2ccccc2)CCOCC1 | inconclusive [inhibitor, single point] | –
38 | Cc1cccc(N2CCCn3c2nc2c3c(=O)n(CCN3CCOCC3)c(=O)n2C)c1 | inconclusive [inhibitor, partial curve] | –
39 | CC(=O)N/C(=C/c1ccccc1)c1sc2ccccc2[n+]1CCCCI | active: 11.2 µM | –
40 | CCOC(=O)C1Oc2ccccc2C(c2ccc(C)cc2)=C1C(=O)OC (stereo not given) | inconclusive [inhibitor, single point] | –
41 | CCCn1c(=O)c2sccc2n2c(CCCC(=O)Nc3cccc(CC)c3)nnc12 | inconclusive [inhibitor, single point] | –
42 | COc1ccc2[nH]c(-c3ccccc3)c(CCNC(C)=O)c2c1 | inconclusive [inhibitor, partial curve] | –
43 | Cn1cc(-c2cccc(Cl)c2)cc(C#N)c1=O | – | inactive: -20.2%
44 | CCOc1ccc(C2c3[nH]c4ccccc4c3CCN2CCCn2cccn2)cc1 (stereo not given) | inconclusive [inhibitor, single point] | –
45 | O=C1C=C(Nc2ccccc2)C(=O)c2ccccc21 | inconclusive [inhibitor, single point] | –
46 | C[C@@H]1CN([C@H](C)CO)C(=O)c2cc(C#CC3CCCCC3)cnc2O[C@H]1CN(C)Cc1cccnc1 | inconclusive [inhibitor, single point] | –
47 | Nc1nnc(CC(=O)N/N=C/c2ccccc2OCc2ccc(F)cc2)s1 | inconclusive [inhibitor, single point] | –
48 | CCCNC(=O)c1cc(C2CCCCN2C(=O)c2cccs2)on1 (stereo not given) | – | inactive: 3.49%
49 | CN(C)C(CNc1ccc(C(F)(F)F)cn1)c1ccccc1 (stereo not given) | – | inactive: -22.2%
50 | Cc1ccc(NCCc2ccc(C)nc2)cc1 | inconclusive [inhibitor, full curve] | –

Row | Structure (SMILES) | Potency | activity change, negative = growth inhibition
51 | COc1ccc(N(C(=O)CS(=O)CC(=O)Nc2ccc(F)cc2)C(C(=O)NC2CCCCC2)c2cccs2)cc1 (stereo not given) | inconclusive [inhibitor, single point] | –
52 | Cc1ccc(CN=C(Nc2ccccc2)NC2CCCCC2)cc1 | active: 20.6 µM | –
53 | Cc1nn2c(-c3ccccn3)ccnc2c1Br | – | inactive: -6.57%
54 | Cn1c(=O)oc2cc(S(=O)(=O)N3CCCC(C(=O)NCCN4CCOCC4)C3)ccc21 (stereo not given) | – | inactive: -5.46%
55 | CCc1ccccc1NC(=O)COc1ccc2c(=O)c(Oc3cc(C)ccc3C)coc2c1 | active: 23.1 µM | –
56 | COc1ccccc1C(=O)NCCC(=O)Nc1cccc(S(=O)(=O)N2CCCC2)c1 | inconclusive [inhibitor, single point] | –
57 | COC(=O)CC1Oc2ccccc2-n2cc(-c3ccc(Cl)cc3)nc21 (stereo not given) | active: 1.84 µM | –
58 | O=C(CN1CCc2cc3c(cc2C1)OCCCO3)Nc1ccc(F)cc1 | inconclusive [inhibitor, partial curve, poor fit] | –
59 | COc1ccc(CC(=O)Nc2cccc(C)n2)cc1OC | inconclusive [inhibitor, single point] | –
60 | CCCCn1c(SCC(=O)Nc2cc(C(F)(F)F)ccc2Cl)nnc1C(CC)N(C)C (stereo not given) | active: 20.6 µM | –
61 | COc1ccc(CNC(=O)COC(=O)c2ccc(Br)o2)cc1 | – | inactive: -7.82%
62 | CCn1c(C(=O)NC2CCC(C)CC2)cc2sccc21 (stereo not given) | inconclusive [inhibitor, partial curve, poor fit] | –
63 | Cn1c(COc2ccc(Cl)cc2)nnc1SCC(=O)NC1CCCCC1 | – | inactive: 0.731%
64 | COc1ccc(-n2nc(C(=O)NCCc3cccc(C)c3)c3c4ccccc4n(C)c3c2=O)cc1Cl | – | inactive: -6.97%
65 | CCOC(=O)c1ccc(Nc2cc(-c3ccccc3)nc(C)n2)cc1 | inconclusive [inhibitor, single point] | –
66 | CCCn1nnc(NC(=O)c2cc(Br)cc(Br)c2OC)n1 | – | inactive: -22.8%
67 | O=C(Cn1nc(-c2ccccc2)ccc1=O)Nc1ccc(N2CCN(C(=O)c3ccccc3)CC2)cc1 | inconclusive [inhibitor, single point] | –
68 | CCOC(=O)Nc1ccc2c(c1)C(=NNC(=S)NC)c1ccccc1-2 | active: 3.26 µM | –
69 | NC(Cc1ccccc1)C(=O)O (stereo not given) | – | inactive: -2.66%
70 | N/C(=N\OC(=O)CCCOc1ccccc1)c1ccccn1 | – | inactive: 12.2%
71 | Cc1cccc(-c2nc(SCC(=O)Nc3ccc4c(c3)OCCO4)c(-c3ccccc3)[nH]2)c1 | active: 20.6 µM | –
72 | COc1ccc(CCC(=O)NCCc2ccc(Cl)cc2)cc1 | – | inactive: -11.4%
73 | CCC(C)OC(=O)C1=C(C)OC23OC(N)=C(C#N)C12C(=O)c1ccccc13 (stereo not given) | – | inconclusive: -31.9% [inhibitor]
74 | COc1ccc(C)cc1S(=O)(=O)N(C)CC(=O)NCc1ccco1 | – | inactive: -1.46%
75 | O=C(CC1SC(=NCc2ccccc2)NC1=O)Nc1ccccc1 (stereo not given) | – | inactive: 12.5%
